# Experimental data: the supplement of paper PMC3334620
# Over roughly 33,000 sequences, “E-score (-0.5 to 0.5)” has its median near -0.012; the highest 2% begin near 0.29. The list shows a part of the results.
# Target: T1, Ybr033w (UniProt P38073)
# T1 sequence: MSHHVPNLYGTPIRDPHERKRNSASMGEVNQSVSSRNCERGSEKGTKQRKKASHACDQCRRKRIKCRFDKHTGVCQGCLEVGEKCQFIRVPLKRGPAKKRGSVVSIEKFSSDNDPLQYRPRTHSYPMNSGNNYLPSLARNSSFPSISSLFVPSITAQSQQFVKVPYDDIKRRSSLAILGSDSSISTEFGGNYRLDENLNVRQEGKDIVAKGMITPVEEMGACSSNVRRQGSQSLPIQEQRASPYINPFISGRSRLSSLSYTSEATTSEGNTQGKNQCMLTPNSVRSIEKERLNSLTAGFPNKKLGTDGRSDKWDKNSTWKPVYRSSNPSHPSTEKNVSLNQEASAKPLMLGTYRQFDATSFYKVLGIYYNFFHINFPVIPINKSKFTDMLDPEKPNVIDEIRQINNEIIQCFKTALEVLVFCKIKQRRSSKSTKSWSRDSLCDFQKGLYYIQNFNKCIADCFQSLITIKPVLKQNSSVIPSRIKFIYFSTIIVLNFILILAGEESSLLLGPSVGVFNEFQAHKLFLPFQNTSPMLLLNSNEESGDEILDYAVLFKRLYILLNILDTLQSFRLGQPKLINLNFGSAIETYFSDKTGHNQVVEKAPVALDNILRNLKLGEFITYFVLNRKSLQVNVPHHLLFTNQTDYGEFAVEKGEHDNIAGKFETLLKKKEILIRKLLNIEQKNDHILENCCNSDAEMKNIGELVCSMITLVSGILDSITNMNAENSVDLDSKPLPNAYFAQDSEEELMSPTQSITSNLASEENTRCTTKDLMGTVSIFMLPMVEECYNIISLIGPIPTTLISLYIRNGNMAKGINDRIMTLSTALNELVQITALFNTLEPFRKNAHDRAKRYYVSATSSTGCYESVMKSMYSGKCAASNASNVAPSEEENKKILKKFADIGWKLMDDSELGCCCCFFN
# Test: PBM E-score (8-mer binding enrichment) (E-score (-0.5 to 0.5)); higher = stronger / more preferred TF binding; most listed sequences are background and not binding sites
# Conditions: protein concentration: 200 nM; construct: GST-full length
# Description: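 Universal 'all 10-mer' protein binding microarrays (Agilent AMADID 015681) probed with GST-tagged S. cerevisiae TFs (full-length or DBD) made by in vitro transcription/translation (PURExpress), about 100-200 nM. Bound TF was detected with fluorescent anti-GST. Each ungapped 8-mer (which stands for itself and its reverse complement) is scored by the PBM enrichment score (E-score), a modified Wilcoxon-Mann-Whitney statistic from -0.5 to +0.5, computed with the Universal PBM Analysis Suite. Scale: above 0.35 generally sequence-specific binding.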
row,Sequence,PBM E-score
1,TGGTGCAA,-0.175
2,ATTGGCCA,-0.00978
3,GTCCCTTA,-0.0797
4,CGATTCCG,-0.0765
5,AGCTTACA,0.127
6,CTCGTAGA,-0.194
7,GGGAGGAA,-0.0362
8,TAGCGGCA,-0.164
9,AAACCAGC,-0.0846
10,GAAGTGGA,0.108
11,ACCGGCGA,-0.144
12,ACTGTGAT,0.0145
13,CATATAGG,-0.0375
14,TACTGACA,0.144
15,ATAAGCAC,0.0234
16,CTCTATAA,0.153
17,AAACTATC,0.202
18,GGCCAATA,-0.0498
19,ACATCATC,0.284
20,CTGGGTGC,-0.353
21,CAAGAAAG,0.118
22,CTTGTATA,0.155
23,CCACCCCC,-0.35
24,TCTAACAA,0.183
25,TCCCGGCA,-0.245

row,Sequence,PBM E-score
1,CCAATCAC,-0.0687
2,AGGAACCA,-0.0143
3,GTCTGTGA,-0.0386
4,AGTACTGC,-0.0437
5,ATGTGCTG,0.123
6,AGGAATCA,0.193
7,AGCCCTGA,-0.118
8,GGCCCGTA,-0.258
9,ACTGAATC,-0.0178
10,GAGTCGTA,0.00926
11,CCTTTGCG,0.068
12,AATTCTAT,0.181
13,GTTGTGTA,0.00199
14,CTTCACCA,-0.135
15,AGGAAATA,0.298
16,ACACTCAG,0.0865
17,CACTTCCC,-0.0444
18,ATTTTGGA,0.202
19,AATTGTAT,0.0576
20,TGTCAAAA,0.184
21,ACAGTGTC,-0.138
22,CTGAAATC,-0.11
23,CTCTAGGA,-0.207
24,AAAAAAGG,0.151
25,CAGGACAA,0.204

row,Sequence,PBM E-score
1,GAAAATCA,0.276
2,CCGGCCGC,-0.254
3,CCGTACGA,0.0233
4,AGTCATGC,-0.145
5,CCCACGTA,-0.0817
6,ATATTTAG,0.321
7,GATCCGGA,0.0776
8,ATACGGCG,0.0505
9,AATTTCGC,0.138
10,ATAGCATC,0.11
11,CATTCCAA,0.0384
12,CGCCAGAA,0.043
13,AAGCTCCA,0.0237
14,ACCGGCCC,-0.34
15,CTAGAAGA,0.107
16,TTAGGAAA,0.167
17,GCGGTCGA,-0.0149
18,CGGGTATC,-0.0976
19,TGGGGCAA,-0.345
20,AGGAATAC,-0.131
21,CATAAAGC,-0.0711
22,GGGTTATA,-0.0188
23,ATACACAG,0.00306
24,GCATCGAC,-0.0951
25,TAACCCCA,-0.242

row,Sequence,PBM E-score
1,CGGCCACC,-0.113
2,CCAATGAC,-0.113
3,CCAGGCGA,-0.277
4,ATCAGCTG,0.205
5,GATCGTTA,0.0718
6,GATGACGA,0.0438
7,AGGACACA,0.175
8,CACCAGAA,-0.119
9,TCCTAAAA,0.0432
10,CTTCCGAA,0.208
11,ACACGGCT,-0.177
12,ATACCAAC,0.232
13,AATTGCTG,0.0602
14,CATACGCG,-0.00546
15,GCCATGAA,-0.0481
16,GGAGACGA,0.217
17,CCCTTGCA,-0.291
18,GTCAGACA,-0.157
19,ATGCGGCC,-0.225
20,GCTGAAAC,0.0977
21,CGCATAAG,0.0829
22,AAGATACG,0.226
23,CATACTCC,0.0669
24,AGTTGCTG,-0.00876
25,AGACTCGC,-0.234

row,Sequence,PBM E-score
1,ACGGGGCA,-0.216
2,AATGCTGG,-0.0134
3,AAACCAAG,-0.00645
4,ATTCTGGG,0.146
5,CCCGCGGA,-0.151
6,GACAGCTA,0.0801
7,ATGAGTCG,-0.0608
8,CTCCTCCC,-0.267
9,AATTGCTA,0.0712
10,CCTTACGC,-0.0907
11,ACCCCCGT,-0.35
12,CATATTAC,0.17
13,AATTACTA,0.234
14,CATTAAGA,0.109
15,TATGCAGA,-0.0126
16,GGGCTCTA,-0.0717
17,AGCAGCCC,-0.266
18,ACATAAAG,0.109
19,CCCATCGA,-0.0549
20,AAGTAGGA,0.0218
21,CGATACCG,-0.137
22,ACAGGTTC,-0.204
23,ACTTGCTA,0.0798
24,CGATATGA,0.061
25,GTAAGTGA,0.163

row,Sequence,PBM E-score
1,AGGACGTA,-0.222
2,GGTCGGAA,0.108
3,CAGTCAAC,-0.111
4,AAAACAGG,-0.00112
5,ATGCACAG,-0.0564
6,AGACAACC,0.026
7,AATGTCAA,0.00312
8,AGCCTGAG,-0.12
9,CAGTTTTC,0.0628
10,CATGTGGA,0.11
11,ATCACACC,-0.0155
12,GGGCTCAC,-0.35
13,AGACGAAC,0.151
14,ACCAGGTC,-0.175
15,CTCTACAC,-0.176
16,AGGATATC,0.0694
17,ATAGTCAC,0.159
18,AGTGTCCG,-0.124
19,GCTCTGAA,-0.0631
20,ATCCGGGA,0.0253
21,ACGGTAAC,0.122
22,AAGGTCCC,-0.179
23,CTTGATCA,-0.0299
24,CAGACCGA,-0.101
25,GCCACAAA,0.14

row,Sequence,PBM E-score
1,ACGAATCT,0.182
2,CGATTCAA,0.0308
3,CCTATGTA,0.142
4,GTATAGAC,0.117
5,AGCAGGTA,-0.0336
6,CGGCGCTA,-0.224
7,ACCAAGGC,-0.0863
8,CGCAAACG,-0.0157
9,CAAACCGG,-0.0689
10,GCAGATGA,-0.095
11,CCTGCAAC,-0.034
12,ATACAGGC,-0.112
13,ATTAAATA,0.33
14,AGATGTAC,0.0883
15,ATTATCAG,0.118
16,CGATGAGA,0.177
17,AGGGTAAC,-0.228
18,AGGTAATG,-0.00189
19,GCTTGGAA,0.105
20,AATTTAAA,0.263
21,ACGACCAA,0.0885
22,CTCGTGAC,-0.157
23,CCTGGCCG,-0.0575
24,ACACTTCG,0.153
25,GGACCTAC,-0.0357

row,Sequence,PBM E-score
1,CACAGAGG,-0.112
2,CCTATGCA,0.089
3,AAATTTCT,0.136
4,AGTGCTCG,-0.00427
5,CCTACGCG,-0.0394
6,GCTAGGAA,-0.0692
7,CCAACAGA,-0.087
8,CAGAAAAA,0.0895
9,CACCTACC,-0.214
10,GGGCTAAA,-0.0609
11,ATCTCGAG,-0.0425
12,CATTCTAG,0.119
13,ACACCGCT,-0.158
14,CGGGTTTA,0.163
15,AGCGGGGA,-0.201
16,ACACGTAC,-0.0636
17,AGAGGCGA,-0.266
18,CAACGGTC,-0.0551
19,AGAGGCAA,-0.0963
20,ACCTTCTA,-0.0626
21,GCCCCATA,-0.0981
22,GGAGGCCA,-0.221
23,GAGCAATC,0.115
24,AGCTTCCA,0.2
25,CTTAGAGC,-0.052

row,Sequence,PBM E-score
1,ACAGAGGT,-0.0564
2,AGCGATAA,-0.0195
3,GGGTGGTA,-0.103
4,CGTTGAAC,0.0781
5,CGTAACAC,-0.0282
6,ACAGGCCT,-0.123
7,CTCTGTAA,0.0142
8,GCTTCCGA,0.14
9,ATATGGTG,0.0659
10,CCAACTTC,0.0297
11,GACCAGTA,-0.174
12,GTGAATTA,0.118
13,ACCCCCAG,-0.241
14,ACAATTTC,0.166
15,CCATCCAA,0.0511
16,CATTCGGA,0.198
17,CGGGGTAA,0.0024
18,ATCTGCCG,0.0332
19,GACCACGC,-0.223
